In all, about 2,900 compounds were measured (“NF-kB SEAP reporter activity, fold change vs agonist alone”: median about 0.99, highest 2% from about 2.6 on). The list shows a part of the results.
What was measured:
RAW-Dual [1] = assay: NF-kB SEAP reporter activity, fold change vs agonist alone; higher = enhanced NF-kB activity; conditions: library stock concentration (final ~1000-fold dilution): 10 mM
In short: (§1)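 Supernatant from RAW-Dual macrophages was read after 20 hours for IRF by QuantiLuc luminescence and for NF-κB by QuantiBlue absorbance at 620 nm. The cells (50,000 cells/well in DMEM, 384-well plates, 37 °C, 5% CO2) had received 50 nL of library stock by pin tool and, 1 h later, a PRR agonist. Reporter activity is expressed relative to agonist-alone wells as fold change, and wells were flagged cytotoxic if IncuCyte confluency was under 70% of agonist controls in both mask sets.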

RAW-Dual [2] = assay: NF-kB SEAP reporter activity, fold change vs agonist alone; cytotoxicity flag (confluency mask): not cytotoxic; higher = enhanced NF-kB activity
In short: as §1

RAW-Dual [3] = assay: NF-kB SEAP reporter activity, fold change vs agonist alone; cytotoxicity flag (confluency mask): cytotoxic (confluency <70% of control); higher = enhanced NF-kB activity
In short: as §1

[4] = cytotoxicity flag (confluency mask): not cytotoxic, agonist: Imiquimod (TLR7) […]
[5] = cytotoxicity flag (confluency mask): not cytotoxic, agonist: MPLA (TLR4) […]
[6] = agonist: ODN 1826 (TLR9) 0.5 ug/mL
[7] = agonist: Pam2CSK4 (TLR2/6) 0.1 ug/mL
[8] = agonist: Pam3CSK4 (TLR2/1) 0.1 ug/mL
[9] = cytotoxicity flag (confluency mask): cytotoxic (confluency <70% of control), agonist: MPLA (TLR4) […]

O=C(CCc1ccc(O)cc1)c1c(O)cc(O)cc1OC1OC(CO)C(O)C(O)C1O (configuration not stated)
NF-kB SEAP reporter activity (RAW-Dual [1]; [4]): 0.927
NF-kB SEAP reporter activity (RAW-Dual [1]; [5]): 1.08

O=C(CCc1ccc(O)cc1)c1c(O)cc(O)cc1OC1OC(CO)C(O)C(O)C1O (configuration not stated) (library stock concentration (final ~1000-fold dilution): 10 mM)
NF-kB SEAP reporter activity (RAW-Dual [2]; agonist: LPS (TLR4) 0.1 ug/mL): 0.997
NF-kB SEAP reporter activity (RAW-Dual [2]; [6]): 0.987
NF-kB SEAP reporter activity (RAW-Dual [2]; [7]): 1.22
NF-kB SEAP reporter activity (RAW-Dual [2]; [8]): 1.21

CCCCc1oc2ccc(NS(C)(=O)=O)cc2c1C(=O)c1ccc(OCCCN(CCCC)CCCC)cc1.Cl
NF-kB SEAP reporter activity (RAW-Dual [1]; [4]): 0.984
NF-kB SEAP reporter activity (RAW-Dual [1]; [5]): 0.902

CCCCc1oc2ccc(NS(C)(=O)=O)cc2c1C(=O)c1ccc(OCCCN(CCCC)CCCC)cc1.Cl (library stock concentration (final ~1000-fold dilution): 10 mM)
NF-kB SEAP reporter activity (RAW-Dual [2]; agonist: LPS (TLR4) 0.1 ug/mL): 0.27
NF-kB SEAP reporter activity (RAW-Dual [2]; [6]): 0.964
NF-kB SEAP reporter activity (RAW-Dual [2]; [7]): 0.216
NF-kB SEAP reporter activity (RAW-Dual [2]; [8]): 0.873

CNC(=O)c1cc(Oc2ccc(NC(=O)Nc3ccc(Cl)c(C(F)(F)F)c3)c(F)c2)ccn1
NF-kB SEAP reporter activity (RAW-Dual [1]; [4]): 1.15
NF-kB SEAP reporter activity (RAW-Dual [1]; [5]): 1.22

CNC(=O)c1cc(Oc2ccc(NC(=O)Nc3ccc(Cl)c(C(F)(F)F)c3)c(F)c2)ccn1 (library stock concentration (final ~1000-fold dilution): 10 mM)
NF-kB SEAP reporter activity (RAW-Dual [2]; agonist: LPS (TLR4) 0.1 ug/mL): 0.614
NF-kB SEAP reporter activity (RAW-Dual [2]; [6]): 0.463
NF-kB SEAP reporter activity (RAW-Dual [2]; [7]): 0.148
NF-kB SEAP reporter activity (RAW-Dual [2]; [8]): 0.325

O=C(CCCN1CCN(c2ccccn2)CC1)c1ccc(F)cc1
NF-kB SEAP reporter activity (RAW-Dual [1]; [4]): 0.893
NF-kB SEAP reporter activity (RAW-Dual [1]; [5]): 0.982

O=C(CCCN1CCN(c2ccccn2)CC1)c1ccc(F)cc1 (library stock concentration (final ~1000-fold dilution): 10 mM)
NF-kB SEAP reporter activity (RAW-Dual [2]; agonist: LPS (TLR4) 0.1 ug/mL): 1.05
NF-kB SEAP reporter activity (RAW-Dual [2]; [6]): 0.704
NF-kB SEAP reporter activity (RAW-Dual [2]; [7]): 0.91
NF-kB SEAP reporter activity (RAW-Dual [2]; [8]): 1.19

CCOC(=O)C(CCc1ccccc1)NC(C)C(=O)N(CC(=O)O)C1Cc2ccccc2C1.Cl (configuration not stated)
NF-kB SEAP reporter activity (RAW-Dual [1]; [4]): 0.953
NF-kB SEAP reporter activity (RAW-Dual [1]; [5]): 1.02

CCOC(=O)C(CCc1ccccc1)NC(C)C(=O)N(CC(=O)O)C1Cc2ccccc2C1.Cl (configuration not stated) (library stock concentration (final ~1000-fold dilution): 10 mM)
NF-kB SEAP reporter activity (RAW-Dual [2]; agonist: LPS (TLR4) 0.1 ug/mL): 0.873
NF-kB SEAP reporter activity (RAW-Dual [2]; [6]): 1.05
NF-kB SEAP reporter activity (RAW-Dual [2]; [7]): 1.03
NF-kB SEAP reporter activity (RAW-Dual [2]; [8]): 0.941

O=C(O)/C=C\C(=O)O.O=C(c1ccc(OCCCc2c[nH]cn2)cc1)C1CC1
NF-kB SEAP reporter activity (RAW-Dual [1]; [4]): 0.636
NF-kB SEAP reporter activity (RAW-Dual [1]; [5]): 0.916

O=C(O)/C=C\C(=O)O.O=C(c1ccc(OCCCc2c[nH]cn2)cc1)C1CC1 (library stock concentration (final ~1000-fold dilution): 10 mM)
NF-kB SEAP reporter activity (RAW-Dual [2]; agonist: LPS (TLR4) 0.1 ug/mL): 1.29
NF-kB SEAP reporter activity (RAW-Dual [2]; [6]): 0.606
NF-kB SEAP reporter activity (RAW-Dual [2]; [7]): 0.979
NF-kB SEAP reporter activity (RAW-Dual [2]; [8]): 1.03

COC(=O)C1=C(C#N)NC(C)=C(C(=O)OC(C)C)C1c1cccc([N+](=O)[O-])c1 (configuration not stated)
NF-kB SEAP reporter activity (RAW-Dual [1]; cytotoxicity flag (confluency mask): cytotoxic (confluency <70% of control), agonist: Imiquimod (TLR7) […]): 1.37
NF-kB SEAP reporter activity (RAW-Dual [1]; [9]): 1.45

COC(=O)C1=C(C#N)NC(C)=C(C(=O)OC(C)C)C1c1cccc([N+](=O)[O-])c1 (configuration not stated) (library stock concentration (final ~1000-fold dilution): 10 mM)
NF-kB SEAP reporter activity (RAW-Dual [3]; agonist: LPS (TLR4) 0.1 ug/mL): 1.04
NF-kB SEAP reporter activity (RAW-Dual [3]; [6]): 1.08
NF-kB SEAP reporter activity (RAW-Dual [3]; [7]): 0.657
NF-kB SEAP reporter activity (RAW-Dual [3]; [8]): 1.03

CNc1nc(Nc2cn(C(C)(C)C#N)nc2C)ncc1C(F)(F)F
NF-kB SEAP reporter activity (RAW-Dual [1]; [4]): 0.954
NF-kB SEAP reporter activity (RAW-Dual [1]; [5]): 1.2

CNc1nc(Nc2cn(C(C)(C)C#N)nc2C)ncc1C(F)(F)F (library stock concentration (final ~1000-fold dilution): 10 mM)
NF-kB SEAP reporter activity (RAW-Dual [2]; agonist: LPS (TLR4) 0.1 ug/mL): 1.51
NF-kB SEAP reporter activity (RAW-Dual [2]; [6]): 1.03
NF-kB SEAP reporter activity (RAW-Dual [2]; [7]): 1.07
NF-kB SEAP reporter activity (RAW-Dual [2]; [8]): 1.19

CC(C)(O)CNc1ncc(-c2ccnc(Nc3ccnc(Cl)c3)n2)c(CC2CC2)n1 (library stock concentration (final ~1000-fold dilution): 10 mM)
NF-kB SEAP reporter activity (RAW-Dual [2]; agonist: LPS (TLR4) 0.1 ug/mL): 5.81

C=CC(=O)N1C/C(=C\c2ccc([N+](=O)[O-])cc2)C(=O)/C(=C/c2ccc([N+](=O)[O-])cc2)C1
NF-kB SEAP reporter activity (RAW-Dual [1]; [9]): 0.793

C=CC(=O)N1C/C(=C\c2ccc([N+](=O)[O-])cc2)C(=O)/C(=C/c2ccc([N+](=O)[O-])cc2)C1 (library stock concentration (final ~1000-fold dilution): 10 mM)
NF-kB SEAP reporter activity (RAW-Dual [3]; agonist: LPS (TLR4) 0.1 ug/mL): 0.243
NF-kB SEAP reporter activity (RAW-Dual [3]; [6]): 0.613
NF-kB SEAP reporter activity (RAW-Dual [3]; [7]): 0.184
NF-kB SEAP reporter activity (RAW-Dual [3]; [8]): 0.392

Cn1c(-c2ccccc2C(F)(F)F)nnc1C12CCC(c3noc(C4CC(F)(F)C4)n3)(CC1)CC2
NF-kB SEAP reporter activity (RAW-Dual [1]; [4]): 0.868
NF-kB SEAP reporter activity (RAW-Dual [1]; [5]): 1.3

Cn1c(-c2ccccc2C(F)(F)F)nnc1C12CCC(c3noc(C4CC(F)(F)C4)n3)(CC1)CC2 (library stock concentration (final ~1000-fold dilution): 10 mM)
NF-kB SEAP reporter activity (RAW-Dual [2]; agonist: LPS (TLR4) 0.1 ug/mL): 1.22
NF-kB SEAP reporter activity (RAW-Dual [2]; [6]): 0.41
NF-kB SEAP reporter activity (RAW-Dual [2]; [7]): 0.827
NF-kB SEAP reporter activity (RAW-Dual [2]; [8]): 1.16

CC(C)c1nc(CN(C)C(=O)NC(C(=O)NC(Cc2ccccc2)CC(O)C(Cc2ccccc2)NC(=O)OCc2cncs2)C(C)C)cs1 (configuration not stated)
NF-kB SEAP reporter activity (RAW-Dual [1]; [4]): 0.777
NF-kB SEAP reporter activity (RAW-Dual [1]; [5]): 0.653

CC(C)c1nc(CN(C)C(=O)NC(C(=O)NC(Cc2ccccc2)CC(O)C(Cc2ccccc2)NC(=O)OCc2cncs2)C(C)C)cs1 (configuration not stated) (library stock concentration (final ~1000-fold dilution): 10 mM)
NF-kB SEAP reporter activity (RAW-Dual [2]; agonist: LPS (TLR4) 0.1 ug/mL): 0.6
NF-kB SEAP reporter activity (RAW-Dual [2]; [6]): 0.68
NF-kB SEAP reporter activity (RAW-Dual [2]; [7]): 0.269
NF-kB SEAP reporter activity (RAW-Dual [2]; [8]): 0.367

CCn1c(-c2nonc2N)nc2cnc(Oc3cccc(NC(=O)c4ccc(OCCN5CCOCC5)cc4)c3)cc21.Cl
NF-kB SEAP reporter activity (RAW-Dual [1]; [4]): 1.48
NF-kB SEAP reporter activity (RAW-Dual [1]; [5]): 1.41

CCn1c(-c2nonc2N)nc2cnc(Oc3cccc(NC(=O)c4ccc(OCCN5CCOCC5)cc4)c3)cc21.Cl (library stock concentration (final ~1000-fold dilution): 10 mM)
NF-kB SEAP reporter activity (RAW-Dual [2]; agonist: LPS (TLR4) 0.1 ug/mL): 1.31
NF-kB SEAP reporter activity (RAW-Dual [2]; [6]): 0.288
NF-kB SEAP reporter activity (RAW-Dual [2]; [7]): 1.12
NF-kB SEAP reporter activity (RAW-Dual [2]; [8]): 1.56

Reference: the supplement of paper PMC10037445
